The supplement of paper PMC4466236
Whole data set: some 33,000 sequences, median “E-score (dimensionless, -0.5 to 0.5)” near -0.058, cut for the highest 2% near 0.35. Some of the results follow.

Tested on: MvaT
Assay: PBM 8-mer E-score (mean of HK and ME arrays) (E-score (dimensionless, -0.5 to 0.5)); higher = stronger relative binding preference; most listed sequences are background and not binding sites
Procedure, shortened: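 Full-length P. aeruginosa MvaT carrying an N-terminal glutathione S-transferase tag was tested by protein binding microarray following a previously described protocol. Two universal double-stranded 60-mer arrays, ME and HK, were used, each with a constant 25-mer primer region and a variable 35-mer region covering all 8-mers. The rank-based E-score is the mean of the two arrays, parsed with a custom script. Its range runs from -0.5 to 0.5 for each 8-mer.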

Sequence	PBM 8-mer E-score
TGAGATCA	-0.0696
TAAATGCA	0.335
GGAGTCCA	-0.133
TAATTAAA	0.447
ATCATTGG	0.00282
CATCCCTC	-0.0998
CAACGGCG	-0.221
AGTGTTGC	-0.0548
AAGAGAAG	0.0777
AGCGTTGC	-0.286
AGTCAGAG	-0.21
TAATCGCA	0.208
AATATGTA	0.365
AGGTTCGC	-0.259
ACGACAGG	-0.225
ACTCACCC	-0.106
ACTCCGCC	-0.239
TAGAACGA	0.104
ATACACCC	-0.0142
CAAGTGAA	-0.118
TGAACGAA	0.071
CGTTTTAG	0.0439
GGACCACA	-0.0353
GCTCAGGA	-0.177
AAAGTGTT	0.17

Sequence	PBM 8-mer E-score
ACGAAGTA	0.0657
ACTCGGGG	-0.116
GGACTGTA	0.0546
ACATCGCT	-0.121
CGGCAAAC	0.0549
AATGCGGT	-0.00428
CCTCCAGA	-0.23
AGGCAGAT	-0.191
AGGTTCCA	-0.194
ATAGGATG	-0.00901
AATCTATA	0.235
AAGCGTAC	-0.128
CGGGGTGA	-0.309
AGCGAGGC	-0.239
ATAGTAAG	0.301
CACGTACA	0.0858
AGTCCGCC	-0.117
CGCAACCG	-0.128
GATTTAGA	0.0137
GCGAGTTA	0.0292
CAGCTTCG	-0.181
GACTTCGA	-0.0309
TAACATGA	0.213
TCGGTGAA	-0.0285
AAGCTTAC	-0.0497

Sequence	PBM 8-mer E-score
ATTAAGCA	0.308
CAGTGCTC	-0.223
AAAACCTC	-0.0209
CGCCCTGC	-0.238
GAGGGAGA	-0.1
CGAGGTTA	0.0753
CCTTTTTA	0.0589
TGAGGCCA	-0.265
ACTGTGCA	-0.0352
AGCCTACG	-0.316
CATTGGAC	-0.133
CGTAAATC	-0.0508
AGTCAGGG	-0.214
AGCCTTGC	-0.244
ACTATGTC	0.0542
ATAGGCTG	-0.0757
GCTTCGAC	-0.16
ACGTAGGG	-0.17
GTGGTTGA	-0.0208
AGATGGAA	-0.1
AATTTAGT	0.303
TGCGGCCA	-0.279
CGAGCAGC	-0.167
GAGGATCA	-0.141
CCAAATGG	-0.134

Sequence	PBM 8-mer E-score
CGGTTCGC	-0.173
AAGGCGTA	-0.111
ACACCCGC	-0.091
GACCAAAC	-0.0191
TAGTCCGA	-0.111
GCTCAGCA	-0.189
AAGTATTA	0.388
CTTGGACA	-0.17
AGCCCTAT	-0.14
CTTACACC	0.172
AAAAACAT	0.166
ACCCCTAC	-0.29
AATAGGTG	0.164
AGTTTTTA	0.247
AGGAAGCA	-0.123
AGATTCAT	0.135
CAGTCGCC	-0.272
TGAACCCA	-0.000255
GAAACTTA	0.235
CGTAGAAA	0.0577
AAACTTTA	0.357
AGCCGGAT	-0.211
CACAACAA	0.258
AATCTGGT	0.0291
CGTACTAC	0.0793

Sequence	PBM 8-mer E-score
CCTGAGGA	-0.22
CAAGTGGA	-0.173
ATTGCAGA	-0.0207
CCGTAACC	0.0259
AGGGCACT	-0.175
ATCTCTTG	0.0688
CTCCCATA	-0.12
GCTACGCC	-0.323
GAGGGAAA	-0.132
CCTCATGC	-0.328
CACCCTGG	-0.306
ACAGCCAC	-0.173
ACTTCATG	0.0205
CACCCGTA	-0.039
AAATTCAT	0.206
ATCGTCCG	-0.132
ACGCGCCG	-0.262
AATCCATG	-0.0623
AGAGGAGC	-0.346
AACAGTTA	0.31
CCGCGAAC	-0.117
GGCGGAAA	-0.0452
AGGCTCAG	-0.191
CCTAGGTA	-0.0515
CGGGAAAC	-0.121

Sequence	PBM 8-mer E-score
ATACCCCC	-0.237
CCCCCACC	-0.297
ATACTCTC	0.0782
CACGGGAA	-0.129
GAGAACCA	-0.183
ACTCTGAG	-0.0985
CGGTCGTC	-0.347
ACCATGGT	-0.177
CCCCTTTA	-0.176
CCCAGACG	-0.128
CCGATGCC	-0.243
ATTTGCGG	-0.063
TAGCGAGA	-0.013
AATCGAAG	-0.00549
CAATCCTG	-0.039
CACTCCGG	-0.225
ATGGCTGA	-0.163
CGCCGGAC	-0.155
AGACCCGA	-0.133
CCGCGTCA	-0.18
AGCCTAGC	-0.306
AACCCTCT	-0.36
ACCTCTTG	-0.155
TAGCACGA	0.00258
TGCTACCA	-0.206

Sequence	PBM 8-mer E-score
CTACACTC	-0.0376
AACCCGAA	-0.0227
CAACGACC	-0.155
GTGGGAAA	-0.0907
AGGACCCC	-0.22
CGGGCCCA	-0.328
CCGATTCA	-0.128
ATTAGACC	0.0805
CCGCAAAA	-0.0181
CCGGGTAC	-0.17
CTCACCCA	-0.079
GCCACGGA	-0.226
AACAACTT	0.358
CTCCCATC	-0.218
CAGAGACA	-0.164
ACACCTCT	-0.0675
GACTATCC	-0.0423
ATTAGTAG	0.273
GCTGCAAA	0.094
TTATGAAA	0.303
AGCTCGTC	-0.146
ACAACTTC	0.201
